# The full ranking holds about 81,000 sequences; the median of “one-hybrid fitness for binding NBS DNA” is about -0.1, and the highest 2% start at about 0.36. Some of the results follow.
# B1: Caulobacter ParB omega fusion; a variant is named by its letters at X, in order, B8GW30 (parent)
# chain: MESVVVGEPGMSEGRRGLGRGLSALLGEVDAAPAQAPGEQLGGSREAPIEILQRNPDQPRRTFREEDLEDLSNSIREKGVLQPILVRPSPDTAGEYQIVAGERAWRAAQRAGLKTVPIMVRELDDLAVLEIGIIENVQRADLNVLEEALSYKVLMEKFERTQENIAQTIGKSXSHVANXMRLLXLPDEVQSYLVSGELTAXHARAIAAAADPVALAKQIIEGGLSVRETEALARKAPNLSAGKSKGGRPPRVKDTDTQALESDLSSVLGLDVSIDHRGSTGTLTITYATLEQLDDLCNRLTRGI
# Variants of: B1
# Assay: one-hybrid fitness for binding NBS DNA (the Noc-binding site; scaled: cognate 1, non-cognate 0); higher = stronger binding
# Conditions: with NBS DNA site
# Outline: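 Pre- and post-selection plasmids were Illumina-sequenced, three replicate libraries were pooled, and any variant with under 10 reads was removed. The libraries were Caulobacter ParB with four specificity codons randomised, selected in E. coli USO through a HIS3 reporter whose site is 19 bp from the promoter. Cells grew 48 hours at 37°C on M9 without histidine, with 0.1 mM IPTG and 5 mM 3-AT. Fitness is the log change in variant-to-wild-type read ratio, rescaled against cognate and non-cognate.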
row,Variant,one-hybrid fitness for binding NBS DNA
1,GSRM,≤ 0.2
2,PLYW,≤ 0.2
3,HPTG,≤ 0.2
4,RSKE,≤ 0.2
5,RTWG,≤ 0.2
6,TAYF,≤ 0.2
7,VKQC,≤ 0.2
8,EMWS,≤ 0.2
9,WPPP,≤ 0.2
10,VRDC,≤ 0.2
11,NMMT,≤ 0.2
12,DMVR,≤ 0.2
13,RTCF,≤ 0.2
14,RSHG,≤ 0.2
15,TAEG,≤ 0.2
16,WVHV,≤ 0.2
17,SSPA,≤ 0.2
18,IMPE,≤ 0.2
19,LGHV,≤ 0.2
20,PDGL,≤ 0.2
21,RYQT,0.381
22,DSDT,≤ 0.2
23,YEHG,≤ 0.2
24,PCEW,≤ 0.2
25,RIVW,≤ 0.2
26,RVND,≤ 0.2

row,Variant,one-hybrid fitness for binding NBS DNA
1,ALKC,≤ 0.2
2,NYAV,≤ 0.2
3,SPPA,≤ 0.2
4,QITF,≤ 0.2
5,WYGR,≤ 0.2
6,HMNS,≤ 0.2
7,ATYG,≤ 0.2
8,DLHM,≤ 0.2
9,GSFC,≤ 0.2
10,RSTH,≤ 0.2
11,SPRT,≤ 0.2
12,CKLP,≤ 0.2
13,FSTG,≤ 0.2
14,SPRI,≤ 0.2
15,FRNV,≤ 0.2
16,RMSK,≤ 0.2
17,INSS,≤ 0.2
18,CMRY,≤ 0.2
19,VVND,≤ 0.2
20,MMWN,≤ 0.2
21,QPGG,≤ 0.2
22,YTIN,≤ 0.2
23,QTID,≤ 0.2
24,LSET,≤ 0.2
25,PPNV,≤ 0.2
26,AMPI,≤ 0.2

row,Variant,one-hybrid fitness for binding NBS DNA
1,PMGH,≤ 0.2
2,PFTP,≤ 0.2
3,QEDC,≤ 0.2
4,DAAR,≤ 0.2
5,TPVV,≤ 0.2
6,QRQQ,0.397
7,PCDS,≤ 0.2
8,HERF,≤ 0.2
9,RAHP,≤ 0.2
10,HRRM,≤ 0.2
11,FAEL,≤ 0.2
12,MRKR,0.307
13,GART,≤ 0.2
14,PYLS,≤ 0.2
15,VFIR,≤ 0.2
16,AWAM,≤ 0.2
17,YNMR,≤ 0.2
18,DYTC,≤ 0.2
19,NITC,≤ 0.2
20,AVGE,≤ 0.2
21,LYKL,≤ 0.2
22,CENT,≤ 0.2
23,INEI,≤ 0.2
24,WESI,≤ 0.2
25,RFQC,≤ 0.2
